Measurements from article PMC3880688 (ACS chemical biology, 2013).

Tests used:
[1] = biological target: recombinant human HDAC3-SMRT-DAD (Homo sapiens, UniProt O15379); experiment: competitive fluorescence-based deacetylase assay; assay type: biochemical; details: 0.1, 1, 10 μM; 5 min and 3 h pre-incubation
HDAC3-SMRT-DAD complex [2] = biological target: T1, HDAC3-SMRT-DAD complex (Homo sapiens, UniProt O15379); experiment: saturation transfer difference; assay type: binding; details: 1 μM complex; probe 7 100 μM; Ins(1,4,5,6)P4 25 μM
HDAC3-SMRT-DAD complex [3] = biological target: T1, HDAC3-SMRT-DAD complex; experiment: photocrosslinking / biotinylation of recombinant HDAC3-SMRT-DAD complex; details: all Ins(1,4,5,6)P4 concentrations, with or without monoazide 5

effect on enzymatic activity of HDAC3-SMRT-DAD [1]: does not inhibit the enzymatic activity | STD NMR response / binding to the complex (HDAC3-SMRT-DAD complex [2]): binds to the HDAC3-SMRT-DAD complex | effect on photolabeling of HDAC3 or SMRT-DAD with probe 1 (HDAC3-SMRT-DAD complex [3]): no statistically significant effect
Structure (SMILES): O=P(O)(O)O[C@H]1[C@H](OP(=O)(O)O)[C@@H](OP(=O)(O)O)[C@@H](O)[C@@H](O)[C@@H]1OP(=O)(O)O [Ins(1,4,5,6)P4, D-myo-inositol-(1,4,5,6)-tetrakisphosphate, reference compound]
